Assay results reported in US9486506B2 (Novo Nordisk A/S, priority 2011, dated 2016).
At least one compound was matched to its structure with a doubt left. Numbered stars: 1 amine (or outer) side, 2 acyl side, 3 side chain; on linkers, the order of the positions; unused ones are H or OH. Side chains are listed from the residue outwards. Peptide text beside a SMILES is read from it. * marks the point of attachment. C18 diacid = O=C(O)CCCCCCCCCCCCCCCCC(=O)*; γGlu = O=C(O)[C@H](CCC(=O)[*:2])N[*:1]; AEEA = NCCOCCOCC(=O)O

Assay: Assay (II) ThT fibrillation assay for physical stability
Assay type: physicochemical
Conditions: pH 7.5

First: CC(C)C[C@H](NC(=O)[C@H](Cc1c[nH]c2ccccc12)NC(=O)[C@H](CCCCNC(=O)CC[C@H](NC(=O)CC[C@H](NC(=O)COCCOCCNC(=O)COCCOCCNC(=O)CC[C@H](NC(=O)CCCCCCCCCCCCCCCCC(=O)O)C(=O)O)C(=O)O)C(=O)O)NC(=O)[C@@H](NC(=O)[C@H](Cc1ccccc1)NC(=O)[C@H](CC(=O)O)NC(=O)[C@H](CCC(N)=O)NC(=O)[C@H](C)NC(=O)[C@H](CCCNC(=N)N)NC(=O)[C@H](CCCNC(=N)N)NC(=O)[C@@H](NC(=O)[C@H](CC(=O)O)NC(=O)[C@H](CC(C)C)NC(=O)[C@H](Cc1ccc(O)cc1)NC(=O)[C@H](CCCNC(=N)N)NC(=O)[C@H](CO)NC(=O)[C@H](Cc1ccc(O)cc1)NC(=O)[C@H](CC(=O)O)NC(=O)[C@H](CO)NC(=O)[C@@H](NC(=O)[C@H](Cc1ccccc1)NC(=O)[C@@H](NC(=O)CNC(=O)[C@H](CCC(N)=O)NC(=O)[C@H](CO)NC(=O)[C@@H](N)Cc1c[nH]cn1)[C@@H](C)O)[C@@H](C)O)[C@@H](C)O)C(C)C)C(=O)N[C@@H](CC(C)C)C(=O)N[C@@H](CO)C(=O)N[C@H](C(=O)O)[C@@H](C)O [Example 22, N^ε24-[(4S)-4-carboxy-4-[[(4S)-4-carboxy-4-[[2-[2-[2-[[2-[2-[2-[[(4S)-4-carboxy-4-(17-carboxyheptadecanoylamino)butanoyl]amino]ethoxy]ethoxy]acetyl]amino]ethoxy]ethoxy]acetyl]amino]butanoyl]amino]butanoyl]-[Arg^12,Thr^16,Lys^24,Leu^27,Ser^28]-Glucagon] (H-HSQGTFTSDYSRYLDTRRAQDFVK([γGlu-γGlu-AEEA-AEEA-γGlu-C18 diacid])WLLST-OH)
Second: CC(C)C[C@H](NC(=O)[C@H](CC(=O)O)NC(=O)[C@H](CC(C)C)NC(=O)[C@H](Cc1ccc(O)cc1)NC(=O)[C@H](CCCNC(=N)N)NC(=O)[C@H](CO)NC(=O)[C@H](Cc1ccc(O)cc1)NC(=O)[C@H](CC(=O)O)NC(=O)[C@H](CO)NC(=O)[C@@H](NC(=O)[C@H](Cc1ccccc1)NC(=O)[C@@H](NC(=O)CNC(=O)[C@H](CCC(N)=O)NC(=O)[C@H](CO)NC(=O)[C@@H](N)Cc1c[nH]cn1)[C@@H](C)O)[C@@H](C)O)C(=O)N[C@@H](CCCNC(=N)N)C(=O)N[C@@H](CCCNC(=N)N)C(=O)N[C@@H](C)C(=O)N[C@@H](CCC(N)=O)C(=O)N[C@@H](CC(=O)O)C(=O)N[C@@H](Cc1ccccc1)C(=O)N[C@H](C(=O)N[C@@H](CCCCNC(=O)COCCOCCNC(=O)COCCOCCNC(=O)CC[C@H](NC(=O)CC[C@H](NC(=O)CC[C@H](NC(=O)CCCCCCCCCCCCCCCCC(=O)O)C(=O)O)C(=O)O)C(=O)O)C(=O)N[C@@H](Cc1c[nH]c2ccccc12)C(=O)N[C@@H](CC(C)C)C(=O)N[C@@H](CC(C)C)C(=O)N[C@@H](CO)C(=O)N[C@H](C(=O)O)[C@@H](C)O)C(C)C [Example 28, N^ε24-[2-[2-[2-[[2-[2-[2-[[(4S)-4-carboxy-4-[[(4S)-4-carboxy-4-[[(4S)-4-carboxy-4-(17-carboxyheptadecanoylamino)butanoyl]amino]butanoyl]amino]butanoyl]amino]ethoxy]ethoxy]acetyl]amino]ethoxy]ethoxy]acetyl]-[Arg^12,Leu^16,Lys^24,Leu^27,Ser^28]-Glucagon] (H-HSQGTFTSDYSRYLDLRRAQDFVK([AEEA-AEEA-γGlu-γGlu-γGlu-C18 diacid])WLLST-OH)
The “ThT assay [Lagtime]” value of the first is 22-fold higher: 45 h for the first, 2 h for the second.

Compared with `CC[C@H](C)[C@H](NC(=O)[C@H](CC(C)C)NC(=O)[C@H](CC(C)C)NC(=O)[C@H](Cc1c[nH]c2ccccc12)NC(=O)[C@H](CCCCNC(=O)CC[C@H](NC(=O)CC[C@H](NC(=O)COCCOCCNC(=O)COCCOCCNC(=O)CC[C@H](NC(=O)CCCCCCCCCCCCCCCCC(=O)O)C(=O)O)C(=O)O)C(=O)O)NC(=O)[C@@H](NC(=O)[C@H](Cc1ccccc1)NC(=O)[C@H](CC(=O)O)NC(=O)[C@H](CCC(N)=O)NC(=O)[C@H](C)NC(=O)[C@H](CCCNC(=N)N)NC(=O)[C@H](CCCNC(=N)N)NC(=O)[C@H](CC(C)C)NC(=O)[C@H](CC(=O)O)NC(=O)[C@H](CC(C)C)NC(=O)[C@H](Cc1ccc(O)cc1)NC(=O)[C@H](CCCNC(=N)N)NC(=O)[C@H](CO)NC(=O)[C@H](Cc1ccc(O)cc1)NC(=O)[C@H](CC(=O)O)NC(=O)[C@H](CO)NC(=O)[C@@H](NC(=O)[C@H](Cc1ccccc1)NC(=O)[C@@H](NC(=O)CNC(=O)[C@H](CCC(N)=O)NC(=O)[C@H](CO)NC(=O)[C@@H](N)Cc1c[nH]cn1)[C@@H](C)O)[C@@H](C)O)C(C)C)C(=O)N[C@H](C(=O)O)[C@@H](C)O` [Example 18, N^ε24-[(4S)-4-carboxy-4-[[(4S)-4-carboxy-4-[[2-[2-[2-[[2-[2-[2-[[(4S)-4-carboxy-4-(17-carboxyheptadecanoylamino)butanoyl]amino]ethoxy]ethoxy]acetyl]amino]ethoxy]ethoxy]acetyl]amino]butanoyl]amino]butanoyl]-[Arg^12,Leu^16,Lys^24,Leu^27,Ile^28]-Glucagon] (H-HSQGTFTSDYSRYLDLRRAQDFVK([γGlu-γGlu-AEEA-AEEA-γGlu-C18 diacid])WLLIT-OH), `CC(C)C[C@H](NC(=O)[C@H](Cc1ccc(O)cc1)NC(=O)[C@H](CCCCN)NC(=O)[C@H](CO)NC(=O)[C@H](Cc1ccc(O)cc1)NC(=O)[C@H](CC(=O)O)NC(=O)[C@H](CO)NC(=O)[C@@H](NC(=O)[C@H](Cc1ccccc1)NC(=O)[C@@H](NC(=O)CNC(=O)[C@H](CCC(N)=O)NC(=O)[C@H](CO)NC(=O)[C@@H](N)Cc1c[nH]cn1)[C@@H](C)O)[C@@H](C)O)C(=O)N[C@@H](CC(=O)O)C(=O)N[C@@H](CCC(=O)O)C(=O)N[C@@H](CCCNC(=N)N)C(=O)N[C@@H](CCCNC(=N)N)C(=O)N[C@@H](C)C(=O)N[C@@H](CCC(N)=O)C(=O)N[C@@H](CC(=O)O)C(=O)N[C@@H](Cc1ccccc1)C(=O)N[C@H](C(=O)N[C@@H](CCCCNC(=O)CC[C@H](NC(=O)CC[C@H](NC(=O)COCCOCCNC(=O)COCCOCCNC(=O)CC[C@H](NC(=O)CCCCCCCCCCCCCCCCC(=O)O)C(=O)O)C(=O)O)C(=O)O)C(=O)N[C@@H](Cc1c[nH]c2ccccc12)C(=O)N[C@@H](CC(C)C)C(=O)N[C@@H](CC(C)C)C(=O)N[C@@H](CO)C(=O)N[C@H](C(=O)O)[C@@H](C)O)C(C)C` [Example 41, N^ε24-[(4S)-4-carboxy-4-[[(4S)-4-carboxy-4-[[2-[2-[2-[[2-[2-[2-[[(4S)-4-carboxy-4-(17-carboxyheptadecanoylamino)butanoyl]amino]ethoxy]ethoxy]acetyl]amino]ethoxy]ethoxy]acetyl]amino]butanoyl]amino]butanoyl]-[Glu16,Lys24,Leu27,Ser28]-Glucagon] is higher in “ThT assay [Lagtime]” value: 0 h for the first, 45 h for the second.

`CC(C)C[C@H](NC(=O)[C@H](CC(=O)O)NC(=O)[C@H](CC(C)C)NC(=O)[C@H](Cc1ccc(O)cc1)NC(=O)[C@H](CCCNC(=N)N)NC(=O)[C@H](CO)NC(=O)[C@H](Cc1ccc(O)cc1)NC(=O)[C@H](CC(=O)O)NC(=O)[C@H](CO)NC(=O)[C@@H](NC(=O)[C@H](Cc1ccccc1)NC(=O)[C@@H](NC(=O)CNC(=O)[C@H](CCC(N)=O)NC(=O)[C@H](CO)NC(=O)[C@@H](N)Cc1c[nH]cn1)[C@@H](C)O)[C@@H](C)O)C(=O)N[C@@H](CCCNC(=N)N)C(=O)N[C@@H](CCCNC(=N)N)C(=O)N[C@@H](C)C(=O)N[C@@H](CCC(N)=O)C(=O)N[C@@H](CC(=O)O)C(=O)N[C@@H](Cc1ccccc1)C(=O)N[C@H](C(=O)N[C@@H](CCCCNC(=O)CC[C@H](NC(=O)CC[C@H](NC(=O)CC[C@H](NC(=O)CCCCCCCCCCCCCCCCC(=O)O)C(=O)O)C(=O)O)C(=O)O)C(=O)N[C@@H](Cc1c[nH]c2ccccc12)C(=O)N[C@@H](CC(C)C)C(=O)N[C@@H](CC(C)C)C(=O)N[C@@H](CO)C(=O)N[C@H](C(=O)O)[C@@H](C)O)C(C)C` [Example 29, N^ε24-[(4S)-4-carboxy-4-[[(4S)-4-carboxy-4-[[(4S)-4-carboxy-4-(17-carboxyheptadecanoylamino)butanoyl]amino]butanoyl]amino]butanoyl]-[Arg^12,Leu^16,Lys^24,Leu^27,Ser^28]-Glucagon] (H-HSQGTFTSDYSRYLDLRRAQDFVK([γGlu-γGlu-γGlu-C18 diacid])WLLST-OH) and `CC(C)C[C@H](NC(=O)[C@H](Cc1c[nH]c2ccccc12)NC(=O)[C@H](CCCCNC(=O)CC[C@H](NC(=O)CC[C@H](NC(=O)CC[C@H](NC(=O)CC[C@H](NC(=O)CCCCCCCCCCCCCCCCC(=O)O)C(=O)O)C(=O)O)C(=O)O)C(=O)O)NC(=O)[C@@H](NC(=O)[C@H](Cc1ccccc1)NC(=O)[C@H](CC(=O)O)NC(=O)[C@H](CCC(N)=O)NC(=O)[C@H](C)NC(=O)[C@H](CCCNC(=N)N)NC(=O)[C@H](CCCNC(=N)N)NC(=O)[C@@H](NC(=O)[C@H](CC(=O)O)NC(=O)[C@H](CC(C)C)NC(=O)[C@H](Cc1ccc(O)cc1)NC(=O)[C@H](CCCCN)NC(=O)[C@H](CO)NC(=O)[C@H](Cc1ccc(O)cc1)NC(=O)[C@H](CC(=O)O)NC(=O)[C@H](CO)NC(=O)[C@@H](NC(=O)[C@H](Cc1ccccc1)NC(=O)[C@@H](NC(=O)CNC(=O)[C@H](CCC(N)=O)NC(=O)[C@H](CO)NC(=O)[C@@H](N)Cc1c[nH]cn1)[C@@H](C)O)[C@@H](C)O)C(C)C)C(C)C)C(=O)N[C@@H](CC(C)C)C(=O)N[C@@H](CO)C(=O)N[C@H](C(=O)O)[C@@H](C)O` [Example 78, N^ε24-[(4S)-4-carboxy-4-[[(4S)-4-carboxy-4-[[(4S)-4-carboxy-4-[[(4S)-4-carboxy-4-(17-carboxyheptadecanoylamino)butanoyl]amino]butanoyl]amino]butanoyl]amino]butanoyl]-[Val16,Lys24,Leu27,Ser28]-Glucagon] are within 1.5-fold of each other in “ThT assay [Lagtime]” value: 37 h for the first, 36.6 h for the second.
